About 540 (0.36%) of roughly 150,000 compounds showed an effect of 50% or more. The list shows a part of the results.

The subject of the experiment is Plasmodium falciparum. In words: Primary screen in NF54 nanoGlo assay, in single point, at 2uM, 72h; a lower Z score goes with more inhibition. It counts as functional, Erythrocyte. The following applies: timepoint 72 hour.
For the compound `Cc1ccsc1CNC(=O)[C@H](C)NC(N)=O`, the “% Inhibition” value was -9% and the Z score stood at 1.81.

For the compound `COC[C@H]1CCN(c2cncc(Br)c2)C1`, the “% Inhibition” value was -3% and the Z score is reported as 0.35.

For the compound `COc1ccccc1C1CN(C(=O)c2cccc(Cl)c2)CC1C(=O)NC1CC1` (centres undefined), the “% Inhibition” value was -12% and the Z score was determined as 2.08.

Consider `Cc1nc[nH]c1C(=O)N1CCN(CC(C)C)[C@@H]2CS(=O)(=O)C[C@@H]21`, for which the “% Inhibition” value is -10% and the Z score is on record as 1.47.

As for `CCCc1cnc(C)nc1N1CCC[C@H](CNC(=O)c2cc(C)cc(F)c2)C1`, the “% Inhibition” value amounted to 5% and the Z score is given as -0.55.

For `Cn1nc(-c2ccccn2)cc1CNC(=O)c1cccs1`, the “% Inhibition” value is reported as -15% and the Z score was found to be 1.79.

With `CC(=O)N[C@H]1C[C@@H](c2[nH]nc(C)c2Cl)O[C@@H](C2CCCCC2)C1`, the “% Inhibition” value is on record as 0% and the Z score is reported as -0.03.

In the case of `Nc1ccncc1-n1cnc(-c2cccs2)c1`, the “% Inhibition” value is recorded as 11% and the Z score is recorded as -1.65.

With `Cc1ccc(-n2nc3c(N4CCC[C@H](C(=O)NCc5cccnc5)C4)nnc(C)c3c2C)cc1`, the “% Inhibition” value is -5% and the Z score came out at 0.77.

As for `COC1(c2ccccc2)CCN(c2ccncn2)CC1`, the “% Inhibition” value stood at 0% and the Z score is -0.01.

Regarding `O=C1[C@@H](NCc2cncnc2)CCN1c1ccc(Cl)cc1Cl`, the “% Inhibition” value is -9% and the Z score stood at 0.89.

Take `COc1ccc(C(=O)c2sc(N3CCN(C(=O)c4ccco4)CC3)nc2-c2ccccc2)cc1`: the “% Inhibition” value is on record as -3% and the Z score came out at 0.33.

Regarding `Cn1nccc1C1CCN(S(=O)(=O)c2ccc3c(c2)CCO3)CC1`, the “% Inhibition” value is reported as -10% and the Z score is 1.74.

Take `COCCOCC(=O)Nc1cccc(N)c1C`: the “% Inhibition” value worked out at 7% and the Z score is -1.06.

Take `COc1cccc(CN2CCC[C@@]3(CCN(CCC(C)C)C3)C2)c1OC`: the “% Inhibition” value is -11% and the Z score came out at 1.38.

With `COCCCN(Cc1cnc(-c2cccc(C)c2)nc1)C1CCN(C)CC1`, the “% Inhibition” value was -10% and the Z score came out at 1.42.

As to `COc1ccc(OCCN2CC3(CCCC3)CC2=O)cc1`, the “% Inhibition” value was 0% and the Z score amounted to 0.04.

As to `Cc1c(CN(CCO)Cc2nccn2C)[nH]c2c(Cl)cccc12`, the “% Inhibition” value is given as -14% and the Z score was found to be 1.41.

With `O=C(NCCc1ccc(Cl)cc1)c1ccc(CN2CC(=O)N3CCC[C@H]3C2=O)cc1`, the “% Inhibition” value is given as -19% and the Z score came to 3.67.

Regarding `Cc1c(-c2nc([C@H]3CCOC3)no2)nnn1-c1cccc2cccnc12`, the “% Inhibition” value was -12% and the Z score turned out to be 1.56.

Take `Cc1c(Cl)ccc2sc(N(Cc3ccccn3)C(=O)c3ccccc3Oc3ccccc3)nc12`: the “% Inhibition” value came to 7% and the Z score was -0.89.

As to `CCOc1cc2cc(c1)C(=O)N(C)CC(=O)N[C@@H]1CN(C(=O)CCc3cccnc3)CC[C@@H]1OCc1cccc(c1)O2`, the “% Inhibition” value is recorded as 27% and the Z score is on record as -3.77.

`COC[C@H](C)NC(=O)c1sc2ncnc(N3CCCCCCC3)c2c1C`: the “% Inhibition” value stood at 18% and the Z score is reported as -2.37.

Take `CCNS(=O)(=O)c1ccc2c(c1)N(Cc1nnnn1C1CC1)CC2`: the “% Inhibition” value came out at 3% and the Z score is -0.45.

For the compound `C[C@H]1CN(C(=O)c2ccc3ccc(Cl)cc3n2)CCN1`, the “% Inhibition” value is on record as -7% and the Z score amounted to 0.73.

Consider `COc1ccc(CN2C(=O)COC[C@H]2C(=O)N2CCC(Cc3ccccc3)CC2)cc1`, for which the “% Inhibition” value is -6% and the Z score is listed as 0.71.

On to `C[C@H]1CNCCN1C(=O)CCc1ccc(C(F)F)cc1`, for which the “% Inhibition” value is on record as -8% and the Z score came to 1.06.

As to `O=C1CCCc2nn(-c3ccccc3)c(-c3ccc(O)cc3)c21`, the “% Inhibition” value is reported as -17% and the Z score was 2.27.

With `CCC(NCC1CC=CCC1)c1cnn(C)c1` (centres undefined), the “% Inhibition” value was -4% and the Z score is 0.55.

Take `Cc1cccc(NC(=O)Nc2cccc(CNC(=O)C3CCCC3)c2)c1`: the “% Inhibition” value is given as 1% and the Z score is recorded as -0.14.

With `Cc1ccc(C(=O)OCCC(N)=O)cc1Cl`, the “% Inhibition” value was 0% and the Z score is 0.04.

With `COCC(=O)N(Cc1c(C(C)C)nn(-c2ccccc2)c1Oc1cccc(F)c1)CC1CC1`, the “% Inhibition” value is recorded as -4% and the Z score is 0.33.

Turning to `COc1cccc([C@@H](O)CNc2ccc(-n3nc(C)cc3C)cn2)c1`, the “% Inhibition” value was 3% and the Z score was -0.52.

With `COc1ccc(CN2CC[C@@]3(CCCN(C(=O)C(C)C)C3)C2)c(C)c1`, the “% Inhibition” value is -4% and the Z score turned out to be 0.46.

Take `Cc1cccc(C[C@H](C)NS(=O)(=O)c2cc(C)sc2C)n1`: the “% Inhibition” value was -10% and the Z score was determined as 1.58.

As for `Cc1nscc1C(=O)NC1CN(Cc2ccccc2)CC1C` (centres undefined), the “% Inhibition” value is listed as -10% and the Z score is 1.41.

Regarding `Cc1cc(CN2CCN(c3ccc4cc(Cl)cnc4n3)CC2)on1`, the “% Inhibition” value is given as -8% and the Z score stood at 1.02.

As for `COc1ccccc1-n1nc(C)c(Cc2ccc(C)cc2)c1O`, the “% Inhibition” value amounted to 3% and the Z score is -0.37.

Take `CC(C)c1ccc(NC(=O)CCCC(=O)O)cc1`: the “% Inhibition” value is on record as 36% and the Z score is -1.05.

For `c1cncc(CN(Cc2ccco2)c2ccc3nccnc3n2)c1`, the “% Inhibition” value was -7% and the Z score is 0.84.

Regarding `c1cn2c(n1)CN(c1ncnc3ccsc13)CC2`, the “% Inhibition” value is -14% and the Z score was 1.51.

For the compound `Cc1nn(-c2ccccc2)c(C)c1-c1ccnc(NCC(F)(F)F)n1`, the “% Inhibition” value is recorded as -5% and the Z score amounted to 0.65.

By % Inhibition is commonly meant the drop in the measured response relative to a control, in per cent.
